Source: PMC4336329 (PLoS ONE, 2015)
Screen size: about 310,000 compounds; about 2,200 (0.71%) showed an effect of 50% or more. The effect is printed as a negative number. This is one part of the list.

target: human ether-à-go-go-related gene (hERG) potassium channel (human, UniProt Q12809); assay: primary screen, population patch clamp on CHO cells stably expressing hERG
Sequence (Q12809 whole entry, looked up): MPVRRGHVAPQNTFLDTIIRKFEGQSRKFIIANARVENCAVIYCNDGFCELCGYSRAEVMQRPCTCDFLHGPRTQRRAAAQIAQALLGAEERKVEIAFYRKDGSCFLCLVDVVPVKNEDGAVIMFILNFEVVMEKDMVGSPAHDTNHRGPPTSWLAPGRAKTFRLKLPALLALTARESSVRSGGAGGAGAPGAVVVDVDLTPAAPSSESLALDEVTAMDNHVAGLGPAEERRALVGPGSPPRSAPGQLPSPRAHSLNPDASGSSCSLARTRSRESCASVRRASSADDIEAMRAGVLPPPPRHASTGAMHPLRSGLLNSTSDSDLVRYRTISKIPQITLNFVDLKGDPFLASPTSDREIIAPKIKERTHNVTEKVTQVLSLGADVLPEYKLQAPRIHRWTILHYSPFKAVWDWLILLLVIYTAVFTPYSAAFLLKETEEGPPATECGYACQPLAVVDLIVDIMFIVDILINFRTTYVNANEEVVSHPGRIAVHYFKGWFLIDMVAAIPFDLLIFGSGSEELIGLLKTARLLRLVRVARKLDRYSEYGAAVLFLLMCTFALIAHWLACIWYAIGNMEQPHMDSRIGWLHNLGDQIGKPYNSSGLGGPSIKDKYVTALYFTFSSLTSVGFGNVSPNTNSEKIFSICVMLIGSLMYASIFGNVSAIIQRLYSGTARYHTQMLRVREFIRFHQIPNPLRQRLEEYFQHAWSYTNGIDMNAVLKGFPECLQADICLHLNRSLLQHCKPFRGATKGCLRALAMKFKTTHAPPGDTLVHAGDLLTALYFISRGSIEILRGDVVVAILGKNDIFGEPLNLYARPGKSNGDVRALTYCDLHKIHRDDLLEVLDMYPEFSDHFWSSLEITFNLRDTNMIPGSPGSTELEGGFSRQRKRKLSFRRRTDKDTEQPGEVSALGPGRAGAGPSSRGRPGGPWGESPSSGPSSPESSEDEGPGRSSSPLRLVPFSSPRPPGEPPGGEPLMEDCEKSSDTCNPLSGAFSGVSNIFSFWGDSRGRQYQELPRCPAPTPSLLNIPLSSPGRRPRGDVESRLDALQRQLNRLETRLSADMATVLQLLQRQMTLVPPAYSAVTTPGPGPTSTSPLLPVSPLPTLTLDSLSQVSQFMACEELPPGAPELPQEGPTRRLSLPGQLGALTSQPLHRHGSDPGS

| SMILES | hERG current change (%, negative = inhibition) at 1uM [%] |
| --- | --- |
| CC(=O)Nc1ccc(S(=O)(=O)c2ccc(C)cc2)cc1 | 19.7 |
| Cc1no[n+]([O-])c1COc1cccc(/C=C2\N=C(c3ccccc3)OC2=O)c1 | 11.8 |
| COc1ccc(S(=O)(=O)N2CC(C(=O)O)Oc3ccc(CC(=O)O)cc32)cc1 (stereo not drawn) | 19 |
| CC(C)COc1ccc(Cc2cnc(N)nc2N)cc1 | 3.93 |
| C/C(=N\NC(=O)Cc1ccc(Cl)cc1)c1ccc(F)cc1 | 12.3 |
| CCN1CCN(C(=O)NC2CC(=O)N(c3ccc(OC)cc3)C2)CC1 (stereo not drawn) | 12.5 |
| CC1CCN(CCOc2cccc(Br)c2)CC1.O=C(O)C(=O)O | -0.356 |
| CC(O)CNc1nc2sc3c(c2c(=O)n1Cc1ccco1)CCCCC3 (stereo not drawn) | 11.4 |
| CC(C)CNC(=O)NC(=O)COC(=O)c1ccccc1Sc1ccc(C(F)(F)F)cc1[N+](=O)[O-] | 16.9 |
| CCCn1ncc(CN2CCC(C(=O)Nc3cccc(-c4cccc(F)c4)c3)CC2)c1C | -60.6 |
| O=C(CN1C(=O)NC2(CCOc3ccccc32)C1=O)Nc1cccc(Cl)c1 (stereo not drawn) | 6.54 |
| COC(=O)N1C(=O)[C@@](c2ccccc2)(C2CCCCC2)N1C(=O)OC | 18.7 |
| CCOc1cc(N2CCOCC2)c(OCC)cc1NC(=O)c1cccc(N(C)C)c1 | 1.71 |
| COc1ccc(N2CC(C(=O)Nc3nc4ccc(F)cc4s3)CC2=O)c(OC)c1 (stereo not drawn) | 2.8 |
| C=CCNC(=O)c1ccc2c(c1)nnn2C | 10 |
| CCc1ccc(NC(=O)Cn2nnc(C(=O)NCc3cccs3)c2N)cc1 | 10.1 |
| Cc1ccc(C(=O)N/N=C/C=C/c2ccccc2)cc1 | 6.78 |
| COc1cc(CNc2ccc(NC(C)=O)cc2)ccc1OCc1ccccc1C | 1.41 |
| Cc1ccc(NC(=O)CN(C)C(=O)C2CC(=O)N(Cc3ccccc3)C2)cc1 (stereo not drawn) | 0.268 |
| O=C(CCNc1ccc(Cl)c(C(F)(F)F)c1)c1ccco1 | 6.68 |
| CN(CC(=O)Nc1c(Cl)cccc1Cl)C(=O)CNC(=O)c1ccc2c(c1)OCO2 | 8.08 |
| COc1cccc(N2C(=O)NC(=O)C3(Cc4cc(C)ccc4N(C)C3)C2=O)c1 (stereo not drawn) | 15.8 |

| SMILES | hERG current change (%, negative = inhibition) at 1uM [%] |
| --- | --- |
| COc1ccc(NC(=O)CCCCCN2C(=O)c3ccccc3C2=O)c(OC)c1 | 3.72 |
| COc1cc(C(=O)NC(=S)Nc2ccc3c(c2)OCO3)cc(OC)c1OC | 2.6 |
| CCOc1ccc(C(C(=O)NC(C)(C)C)N(CCOC)C(=O)CCC(=O)Nc2ccccn2)cc1 (stereo not drawn) | 8.52 |
| CCc1ccc(NC(=O)CSc2nc(O)cc(=O)n2C2CCCC2)cc1 | 11.2 |
| CC(C#N)Sc1nc2ccccc2c(=O)n1-c1ccccc1 (stereo not drawn) | 2.62 |
| CCn1c(=O)cc(SCC(=O)Nc2ccc(Cl)cc2)c2ccccc21 | 1.1 |
| CC(C)c1ccc(N(CC(=O)NN=C2CCN(C)CC2)S(=O)(=O)c2ccccc2)cc1 | 2.85 |
| Cc1cc(C)n(C(=O)CCC(=O)Nc2ccc(C)c(C)c2)n1 | 13 |
| CC1Cc2ccccc2N1S(=O)(=O)c1cccc(C(=O)NCCCO)c1 (stereo not drawn) | -7.47 |
| O=C(CCC(=O)N1CCOc2ccccc21)NCc1cccnc1 | 8.94 |
| Cc1ccc(N(CC2=NCCN2)c2cccc(O)c2)cc1.Cl | -20.3 |
| CC1CC(C)CN(CC(=O)Nc2ccc3c(c2)OCCO3)C1.O=C(O)C(=O)O (stereo not drawn) | 7.64 |
| O=C(C1COc2ccccc2O1)N1CCN(c2ccccc2Cl)CC1 (stereo not drawn) | 12.8 |
| CCOc1ccc(C(=O)c2cc([N+](=O)[O-])ccc2N2CCOCC2)cc1 | 8.79 |
| Cl.OCCN(CCO)Cc1csc2ccccc12 | 10.9 |
| Cc1noc(C)c1S(=O)(=O)N(CC(=O)N1CCCC1)c1ccc(C(C)C)cc1 | -2.15 |
| COc1cc2nc(NCC3CCCO3)n3nc(-c4cccnc4)nc3c2cc1OC (stereo not drawn) | -9.54 |
| O=C(COC(=O)c1cc(=O)[nH]c2ccccc12)Nc1nccs1 | 11.3 |
| CC(=O)c1cccc(NC(=O)CN2CCN(Cc3ccccc3)CC2)c1.Cl | 8.66 |
| CC(C)C(=O)N(c1ccc2oc(=O)sc2c1)S(=O)(=O)c1ccccc1 | 16.4 |
| COc1ccc(NC(=O)c2cnn(-c3ccccc3)c2C)cc1OC | 10.1 |
| O=C(NC1CCS(=O)(=O)C1)c1ccc(S(=O)(=O)N2CCCCC2)cc1 (stereo not drawn) | -3.73 |

| SMILES | hERG current change (%, negative = inhibition) at 1uM [%] |
| --- | --- |
| Cc1ccc(CSc2nnc3c(n2)OC2(Nc4ccccc4-3)C(=O)Nc3ccc(F)cc32)cc1 (stereo not drawn) | 13.2 |
| CC(=O)c1ccc(NC(=O)CCNC(=O)c2ccc(Cl)cc2)cc1 | 9.63 |
| COc1ccc(C(=S)N2CCOCC2)cc1OC(=O)c1ccc([N+](=O)[O-])cc1[N+](=O)[O-] | -63.1 |
| COC(=O)c1ccc(C(=O)NC2CCSc3ccccc32)cc1 (stereo not drawn) | 15.2 |
| CC(=O)CC(C)(C)NC(C)=S | 7.42 |
| O=c1onc(-c2cccnc2)n1-c1ccccc1F | 14.6 |
| O=[N+]([O-])/C(C(=C(Cl)Cl)N1CCN(Cc2ccccc2)CC1)=C1\NCCN1Cc1ccc(Cl)nc1 | 10.7 |
| O=C(CN1CCCc2ccccc21)Nc1ccc(F)cc1[N+](=O)[O-] | 0.675 |
| O=C1CC(c2ccco2)Cc2nc(Nc3ccc(F)cc3)ncc21 (stereo not drawn) | -2.32 |
| CCOc1cc(C(=O)NC(C)COC)cc(OCC)c1OCC (stereo not drawn) | 1.02 |
| CCC1CCCCN1CCCNC(=O)CN1C(=O)CSc2ccc(S(=O)(=O)N3CCC(C)CC3)cc21 (stereo not drawn) | 14.1 |
| CC(=O)N/C(=N\c1nc(C)cc(C)n1)Nc1ccc2ccccc2c1 | 13.5 |
| C/C(=N\NC(=O)CC1N=C(Cc2ccccc2)NNC1=O)c1ccc(Br)cc1 (stereo not drawn) | 15.8 |
| CN1CCN(C(=O)c2ccc(OCCOc3ccccc3)cc2)CC1 | 6.61 |
| COc1ccc(C(=O)Nc2cccc(C(C)=O)c2)c(OC)c1OC | 9.05 |
| COc1ccc(S(=O)(=O)NCC(c2ccc(C)cc2)N2CCN(C)CC2)cc1OC (stereo not drawn) | 8.32 |
| CCOc1cc(CNC(=O)CN2C(=O)c3ccccc3S2(=O)=O)ccc1OC | 7.61 |
| Cc1cccc(C)c1OCC(=O)N/N=C/C=C/c1ccco1 | 12.6 |
| CC(C)NCC(=O)Nc1c2c(nc3ccccc13)CCC2.O=C(O)C(=O)O | 7.38 |
| C/C(=N\NC(=O)C1COc2ccccc2O1)c1ccc(C)o1 (stereo not drawn) | 12.7 |
| c1cnc2nc(-c3ccc4c(c3)OCO4)cn2c1 | 6.52 |
| CNC(=O)C1=C(C)n2c(nc3ccccc32)NC1c1ccc(OC)cc1 (stereo not drawn) | 5.76 |

| SMILES | hERG current change (%, negative = inhibition) at 1uM [%] |
| --- | --- |
| Cc1cc(C)c(S(=O)(=O)N2CCCCC2CCNC(=O)C(=O)NCC2CCCO2)c(C)c1 (stereo not drawn) | 3.04 |
| O=C(COc1ccc(Cl)cc1Cl)NC(=S)N1CCCc2ccccc21 | 14.8 |
| CN(C)Cc1ccccc1CCc1ccccc1.Cl | 7.19 |
| CN1CCc2c(OCC(=O)N3CCC(Cc4ccccc4)CC3)cccc2C1=O | -2.56 |
| CN(C)S(=O)(=O)c1cccc(C(=O)Nc2ccccc2N2CCCCC2)c1 | 16.6 |
| Cc1ccc(C(=O)c2cc3ccccc3o2)cc1[N+](=O)[O-] | 14.3 |
| O=C(CSc1nnc(-c2ccc(Br)cc2)o1)N1CCN(C(=O)c2ccco2)CC1 | -8.84 |
| CC(C)(C)NC(=O)C(=O)NN=C1CCCCCCC1 | 7.64 |
| CCOC(=O)CC1COCCN1Cc1cn[nH]c1-c1cc(OC)c(OC)c(OC)c1 (stereo not drawn) | 3.28 |
| O=C(Cn1cnc2ccccc21)N/N=C/c1cccnc1 | 17.4 |
| CN(c1ccc([N+](=O)[O-])cc1C(N)=O)C1CCCCC1 | 7.23 |
| CCOc1ccc(NC(=S)N(CCOC)C(C)c2cccnc2)cc1 (stereo not drawn) | 14.9 |
| Cc1cccc(N(CC(=O)N/N=C/c2ccc(OCC(=O)NCc3ccco3)cc2)S(C)(=O)=O)c1C | 9.76 |
| Cc1cc(C)c2nc(-c3cccnc3)cc(C(=O)NC(C)c3cnn(C)c3C)c2c1 (stereo not drawn) | 12.1 |
| Oc1ccc(C2C(c3ccccc3)=NN=C(c3ccccc3F)N2O)c(O)c1 (stereo not drawn) | 11.6 |
| Cc1cccc2c1N(CCCOc1ccccc1)C(=O)C2=O | -2.18 |
| COCC1=C(C(=O)OC(C)OC(=O)OC(C)C)N2C(=O)[C@@H](NC(=O)/C(=N\OC)c3csc(N)n3)[C@H]2SC1 (stereo partly drawn) | 10.2 |
| COc1ccc(CNc2oc(COc3ccccc3)nc2C#N)cc1 | 9.97 |
| COc1cc(CN(CC2CCCO2)C(=O)c2ccco2)cc(OC)c1OC (stereo not drawn) | 15.3 |
| CNC(=O)c1snnc1-c1ccccc1 | 10.6 |
| CC1(C(=O)NCc2ccccc2)Oc2ccccc2NC1=O (stereo not drawn) | 13.9 |
